# Some of the results follow.
# Test system: PfHDP1 homeodomain (GST-tagged)
# Test: gcPBM binding intensity (ln(normalized median fluorescence intensity)); higher = stronger DNA binding
# In short: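 Using an Agilent 4 × 180k array, primer-extended double-stranded 36-bp intergenic genomic probes and negative controls were exposed for 1 h to GST-fused P. falciparum DNA-binding domains expressed in E. coli. Binding was carried out in 1× PBS with 1% milk, 0.2 mg/ml BSA, 0.5% salmon testes DNA and 0.03% Triton X-100, and protein was detected with Alexa488 anti-GST antibody and a 488 nm scan. Binding intensity is the highest Masliner-normalised natural-log median intensity across replicate spots of either probe orientation.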
row,Sequence,gcPBM binding intensity (ln)
1,TGTTTATACAATATTTGTACATATATTTTTATTTTT [XGTACX_site4104],6.66
2,TTTTAAATAAAAAAATTAAATTAAAATATATAAAAA [XGTACX_negctrl_site490],5.97
3,CATTTTTACAACGTTGCACACTTCAAAAGGTTTACA [CACACA_site2760],9.32
4,GATACTCTCTTTTAATGTACAAAATTTTAAAAATTA [XGTACX_site1781],6.93
5,TATAAAAAAAAAAAAAGTACTTAAATATAAATAAAT [XGTACX_site5052],6.37
6,TTATGAAGCAGACATGCATGTTATGGCTTAAATAAT [TGCATGCA_site492],6.67
7,AAAAAAGAAAAAAACTGTACATGATAAATATTTATT [XGTACX_site7270],6.61
8,ACATTTTTTTTGTGAGTCTTTGCGGCATCAAAATTT [XGTACX_negctrl_site348],5.85
9,AGATTATATAAAAAAGTGCATATTTTCATTTTTTTT [GTGCAC_site9448],6.98
10,TTTATCGAATATAATAGTACATAAAAAAAAAAAAAA [XGTACX_site1734],6.53
11,CATTAAAATGGTAAATGTACATATCCATCTTCTCAC [XGTACX_site4636],6.29
12,TCCCTTTGTATATATATATAAATATATATATATATA [CACACA_negctrl_site157],8.83
13,ACTGTAATATTGAAAGTGCATTAAAGTGTATATTAT [GTGCAC_site9970],9.24
14,TTATTTTATTTAGGGTGTACCCAATTTTTCCATATG [XGTACX_site4957],6.39
15,AAAAATTTTTTACATCGTACAGATATATATAATAAA [XGTACX_site3331],6.45
16,ATTTATATTTATAAATGTACACATATATATTTCATT [XGTACX_site2723],6.37
17,TCCTATAATTTTTTAATCAAAATATTTTATCCTTTG [CACACA_negctrl_site793],6.41
18,AAAAGTAAAAAAAAAAAAAGTAAAAAAAAAAAAAAA [CACACA_negctrl_site389],5.78
19,TAATTTTTTTAAAAGCGTACATTTAAAAAAAAATAT [XGTACX_site2736],6.03
20,TTACAGATATTTATCTGTACATATATTTAAAAATAT [XGTACX_site7431],6.08
21,TCTTATCATTTTAAATCACACACATATATATATATA [CACACA_site8925],9.26
22,TTTTTAAATTCTTTAATATGTTTTATATATCAAAAT [CACACA_negctrl_site75],6

row,Sequence,gcPBM binding intensity (ln)
1,GTGATTAATATATACACACATACATATATATATATA [CACACA_site2817],9.28
2,ATATATATGTATACATGTACATATTTTATTATGTGC [XGTACX_site7207],6.53
3,AAGAATAACTTTTATACATGCAGCATAATATATTGT [TGCATGCA_site605],6.67
4,TGTACATATATATATATATATGTTACTGAAATAAAA [CACACA_negctrl_site1658],6.7
5,CTTTTATAATTCATATGTACTTATTTTTAACATAGG [XGTACX_site7808],6.59
6,TCTTTTAACACATGTGATATTATTTAATAACAATAA [CACACA_negctrl_site339],6.51
7,GGTATACACAAGTATACACACATATAAATATAAATA [CACACA_site7511],6.76
8,AATAACCACAGACACACACACATATAAATATAAATA [CACACA_site7631],6.93
9,GTTTTTTTGTTTTAAAGTACTTAAAAAAAAAATATA [XGTACX_site6998],6.46
10,GATAAAACGTTATGCACACGTACGTGAGTATTTATA [CACACA_site1570],10.4
11,AACAAAACTTTGGATACATGCAAAATTTTTAAATGA [TGCATGCA_site249],6.29
12,AATGATAAATAAAAAGCATGCAACAAATAAAAATAA [TGCATGCA_site453],7.58
13,TTATTCCTTTTCCTTTTTTTTTTTTAACCAAAAAAA [CACACA_negctrl_site309],6.25
14,ATACATAAATTTTGTACACACAAAAAAAAAAAAGCT [CACACA_site1351],6.46
15,TTTATATATATAAATATGTAGATAACAATATTCTGA [TGCATGCA_negctrl_site554],6.13
16,AAAATATACATATATGCATGCATATAAATAAAAAAA [TGCATGCA_site812],6.77
17,AATGTTTATTTTGTTTGTACATAAAATGAATAAAAT [XGTACX_site1456],6.24
18,TATATATATTTATGCACACAAAATATATTATAGAAT [CACACA_site3740],9.64
19,GTTATATATTTTTATGCATGCATTTTTAAATATATA [TGCATGCA_site175],6.86
20,ATTACAATATATACGTGTACATATTACCACCGCTAC [XGTACX_site2308],6.67
21,TGTAAAAAATTTAACACACACATATATATATATATA [CACACA_site2585],9.33
22,ATAAAAATATTACGCACACACAAACTTATTCATTAT [CACACA_site1969],7.49

row,Sequence,gcPBM binding intensity (ln)
1,TTGTTCAAACAAAAAATAAAATAATTGAAAATAAAA [CACACA_negctrl_site812],6.43
2,GTAACTTTATTATACTGTACTATTATATAAGCACAC [XGTACX_site2859],6.77
3,TTACAAAATAAGAGGCACAAACACAAAAAAAAATAA [CACACA_negctrl_site574],6.94
4,TAGAATAAGATAGATATACACACCATTATAAATATA [CACACA_site2500],6.59
5,AAAAAAAAAAGACACACACACAAAAAAAGATATATA [CACACA_site6645],6.58
6,AAAAAAAATTATTATGAACACACATTTATTATATTC [CACACA_site8443],5.92
7,ATTCTACACAGACATACACACATATATATATATATA [CACACA_site5826],9.34
8,TAATATGATCTTAATAGTACTTTATTAATAATAACC [XGTACX_site1953],6.25
9,TATATATGTTTATGTAGTACTATATATCCCTTTCTT [XGTACX_site7049],6.7
10,TATTGATTATTTGAATGTACTTATTATATTAAATAT [XGTACX_site1304],6.04
11,GCACACATATAATAATGTACATATATATATTTAAAA [XGTACX_site4561],6.87
12,AATAAAAATATTTTTACATGCAAATGTTATATATTT [TGCATGCA_site1056],6.72
13,ACACGCACATATATATAAATATATATATATATAAAT [CACACA_negctrl_site1781],7.19
14,AGTTGTTACGAACATACACACGAACATAGACACGGA [CACACA_site8102],6.99
15,ATGAGTGTAATAATATGTACATAACCTACATAATTT [XGTACX_site852],6.76
16,AAAAAAAAATATATAAACACACATATTTATATACAC [GTGCAC_negctrl_site545],6.23
17,TTATTTAAATAATATGTACACACATTTAAAAAATTA [CACACA_site8912],6.39
18,AAAAATAAAATGGACACACACGTTCAAATTTAGATT [CACACA_site5186],6.5
19,GGATGCACACAAAAGGGTACATAAGAAAAAAACAGG [XGTACX_site8570],9.42
20,CACGCACAGATATATACACACTTTTATTTAAATAAC [CACACA_site6852],7.44
21,AAATATATATATAGTTGTACATATATCGTATATATT [XGTACX_site7867],6.44
22,TTCACTAATAAATACGCACACATATACAGATATATA [CACACA_site4887],7.5

row,Sequence,gcPBM binding intensity (ln)
1,TGGGTAAACAAACACACACACATATATATATATATA [CACACA_site1992],9.3
2,CCCCCCCACAGACACACACACATACATACCACATAT [CACACA_site2306],8.2
3,ATATATATATAATAAACACACAAATAGATATAACAT [CACACA_site3715],8.36
4,GGACAAGTTTTTTACATAAATAAAAAAAATAAAAAA [XGTACX_negctrl_site125],6.19
5,TTAAAGCTGACATATACACACATACATAAATTCATA [CACACA_site5377],6.75
6,TATACATATATTATATGTACATATATATATAATATA [XGTACX_site2942],6.4
7,AAAAAAAATACATACACACACACACCCACATATATA [CACACA_site3561],6.9
8,AATATAAAAAAAGAGGAGGGATGGTATACTTGTGGT [CACACA_negctrl_site986],6.96
9,ATAGAAGGCAACTTGGTGCACAAAAAAAAAAATAAT,10.5
10,TTTTTTAAAAGATATATAATATGTATGAATATTCAA [XGTACX_negctrl_site380],6.19
11,AATGTGAAAAAAAAAAGTACAGACCTAATCAAAAAA [XGTACX_site2486],6.47
12,ATACTTATGATAAATACACACTTGAAATTAAGGATT [CACACA_site4772],6.74
13,CGAACAAACAAATAAACACACAAAAAAAAATATATA [CACACA_site1825],6.63
14,AATATATTTCATTTTTGTACACACAACGTTGGAGGG [XGTACX_site6461],7.05
15,CAACATATGCATATGTGTACATATTTTATTTTCAAC [XGTACX_site2237],6.83
16,ATATACTCATTAATAACACACAATATGATAACAAAT [CACACA_site5913],6.91
17,ACATACATATGTAAATGTACAAAATATCCATAGATT [XGTACX_site2782],6.63
18,TTTTATTTCATTTGTTGTACTTTCAAAATATTATTA [XGTACX_site2192],6.83
19,AAGAATAAAGAATGGTGTACATGCATATAAAATATT [XGTACX_site5707],6.72
20,AGTGTTTTTTATAAAGTGCAATATAAAAACAAAATG,9.33
21,ATGTTATATATGTATTGTACGTATTTTGTATATTAT [XGTACX_site6607],6.94
22,AATTTTTTTTTATTGTGTACTTATTTTTTTATATTT [XGTACX_site917],6.74

# From the supplement of paper PMC11417369
